# This is one part of the list.
# B1: PX9937J-pdi-523-26-523 (Parabacteroides distasonis) (protein)
# chain: EPVSSISDANYWKSPDLFKAFNIGLHGLLRSQSSYNIFVLGEPRSDIYGDQPFGGEATQGVERFSYNTINAEFTGISNFANFYTTLNQINLMIRRTNETDLLGEAEKNYYLGQAYGLRAYIYFHLLRSWGDVIITTEPTLGSELDISHLDKAASPASEVMDLIKKDIDASEKAFGGDYSYKQGKCYWSKPATLMLKGEVYLWSGRQMGGGTGDYTVAKTALQDLQQNGNLKLQEKFTDVFSFNNKENSEMIFALHSGKEDDFMMWRDYNWRNNMVPQREYMAGYCDETGTPFLEIPGYNLQGLMRYQVKKDHYLKSFREGDTRLKGTLKAVYKKHEDGTLEYIAPIQYKFQGTTLEGSNERSWYDDYPIYRYADALLLLAEAKALLGEDPSTEINAVRERAYGSEYFNAHKNEVAYPNDKGSFYNDNPFEAGDENVMEAILKERLREFFFEGKRWYDLRRFGKDYVLKYTTAQESRLLWPINEGALTNNPALKQTPGY
# Key:
# Test in all cases: glycan array binding signal (z-score within array); higher = stronger binding
# Conditions in all cases: glycan notation: IUPAC condensed, linker removed
# [1] = target: Neu5Ac(a2-3)Gal(b1-4)GlcNAc(b1-6)GalNAc
# Procedure, shortened: (§1)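 Glycan array data came from 3228 arrays in the Consortium for Functional Glycomics database, and only arrays with an available protein sequence were kept. Glycan names were put into IUPAC-condensed notation, and columns mapping to the same glycan were averaged. The binding signal is a within-array Z-score, averaged across arrays of one protein sequence run at different concentrations or buffers and across linkers. A negative Z-score can be read as non-binding.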
# [2] = target: Neu5Ac(a2-3)Gal(b1-4)GlcNAc(b1-6)[Gal(b1-3)]GalNAc
# Procedure, shortened: as §1
# [3] = target: Neu5Ac(a2-3)Gal(b1-4)GlcNAc(b1-6)[Neu5Ac(a2-3)Gal(b1-3)]GalNAc
# Procedure, shortened: as §1
# [4] = target: Neu5Ac(a2-3)Gal(b1-4)GlcNAc6S
# Procedure, shortened: as §1
# [5] = target: Neu5Ac(a2-3)Gal(b1-4)[Fuc(a1-3)]GlcNAc
# Procedure, shortened: as §1
# [6] = target: Neu5Ac(a2-3)Gal(b1-4)[Fuc(a1-3)]GlcNAc(b1-2)Man
# Procedure, shortened: as §1
# [7] = target: Neu5Ac(a2-3)Gal(b1-4)[Fuc(a1-3)]GlcNAc(b1-3)Gal
# Procedure, shortened: as §1
# [8] = target: Neu5Ac(a2-3)Gal(b1-4)[Fuc(a1-3)]GlcNAc(b1-3)Gal(b1-4)GlcNAc
# Procedure, shortened: as §1
# [9] = target: Neu5Ac(a2-3)Gal(b1-4)[Fuc(a1-3)]GlcNAc(b1-3)Gal(b1-4)[Fuc(a1-3)]GlcNAc(b1-3)Gal(b1-4)[Fuc(a1-3)]GlcNAc
# Procedure, shortened: as §1
# [10] = target: Neu5Ac(a2-3)Gal(b1-4)[Fuc(a1-3)]GlcNAc(b1-3)GalNAc
# Procedure, shortened: as §1
# [11] = target: Neu5Ac(a2-3)Gal(b1-4)[Fuc(a1-3)]GlcNAc(b1-6)[Gal(b1-3)]GalNAc
# Procedure, shortened: as §1
# [12] = target: Neu5Ac(a2-3)Gal(b1-4)[Fuc(a1-3)]GlcNAc(b1-6)[Neu5Ac(a2-3)Gal(b1-3)]GalNAc
# Procedure, shortened: as §1
# [13] = target: Neu5Ac(a2-3)Gal(b1-4)[Fuc(a1-3)]GlcNAc6S
# Procedure, shortened: as §1
# [14] = target: Neu5Ac(a2-3)Gal6S(b1-4)GlcNAc
# Procedure, shortened: as §1
# [15] = target: Neu5Ac(a2-3)Gal6S(b1-4)[Fuc(a1-3)]GlcNAc
# Procedure, shortened: as §1
# Neu5Ac(a2-3)GalNAc = target: Neu5Ac(a2-3)GalNAc
# Procedure, shortened: as §1
# [16] = target: Neu5Ac(a2-3)GalNAc(b1-4)GlcNAc
# Procedure, shortened: as §1
# [17] = target: Neu5Ac(a2-3)[GalNAc(b1-4)]Gal(b1-4)Glc
# Procedure, shortened: as §1
# [18] = target: Neu5Ac(a2-3)[GalNAc(b1-4)]Gal(b1-4)GlcNAc
# Procedure, shortened: as §1
# [19] = target: Neu5Ac(a2-3)[GalNAc(b1-4)]Gal(b1-4)GlcNAc(b1-3)GalNAc
# Procedure, shortened: as §1
# [20] = target: Neu5Ac(a2-3)[Neu5Ac(a2-6)]GalNAc
# Procedure, shortened: as §1
# Neu5Ac(a2-6)Gal = target: Neu5Ac(a2-6)Gal
# Procedure, shortened: as §1
# [21] = target: Neu5Ac(a2-6)Gal(b1-3)GlcNAc(b1-3)[Gal(b1-4)GlcNAc(b1-6)]Gal(b1-4)Glc
# Procedure, shortened: as §1
# Neu5Ac(a2-6)Gal(b1-4)Glc = target: Neu5Ac(a2-6)Gal(b1-4)Glc
# Procedure, shortened: as §1
# [22] = target: Neu5Ac(a2-6)Gal(b1-4)GlcNAc
# Procedure, shortened: as §1
# [23] = target: Neu5Ac(a2-6)Gal(b1-4)GlcNAc(b1-2)Man
# Procedure, shortened: as §1
# [24] = target: Neu5Ac(a2-6)Gal(b1-4)GlcNAc(b1-2)Man(a1-3)Man(b1-4)GlcNAc(b1-4)GlcNAc
# Procedure, shortened: as §1
# [25] = target: Neu5Ac(a2-6)Gal(b1-4)GlcNAc(b1-2)Man(a1-3)[Gal(b1-4)GlcNAc(b1-2)Man(a1-6)]Man(b1-4)GlcNAc(b1-4)GlcNAc
# Procedure, shortened: as §1
# [26] = target: Neu5Ac(a2-6)Gal(b1-4)GlcNAc(b1-2)Man(a1-3)[GlcNAc(b1-2)Man(a1-6)]Man(b1-4)GlcNAc(b1-4)GlcNAc
# Procedure, shortened: as §1
# [27] = target: Neu5Ac(a2-6)Gal(b1-4)GlcNAc(b1-2)Man(a1-3)[GlcNAc(b1-4)][Neu5Ac(a2-6)Gal(b1-4)GlcNAc(b1-2)Man(a1-6)]Man(b1-4)GlcNAc(b1-4)GlcNAc
# Procedure, shortened: as §1
# [28] = target: Neu5Ac(a2-6)Gal(b1-4)GlcNAc(b1-2)Man(a1-3)[Man(a1-6)]Man(b1-4)GlcNAc(b1-4)GlcNAc
# Procedure, shortened: as §1
# [29] = target: Neu5Ac(a2-6)Gal(b1-4)GlcNAc(b1-2)Man(a1-3)[Neu5Ac(a2-3)Gal(b1-4)GlcNAc(b1-2)Man(a1-6)]Man(b1-4)GlcNAc(b1-4)GlcNAc
# Procedure, shortened: as §1
# [30] = target: Neu5Ac(a2-6)Gal(b1-4)GlcNAc(b1-2)Man(a1-3)[Neu5Ac(a2-6)Gal(b1-4)GlcNAc(b1-2)Man(a1-6)]Man(b1-4)GlcNAc(b1-4)GlcNAc
# Procedure, shortened: as §1
# [31] = target: Neu5Ac(a2-6)Gal(b1-4)GlcNAc(b1-2)Man(a1-3)[Neu5Ac(a2-6)Gal(b1-4)GlcNAc(b1-2)Man(a1-6)]Man(b1-4)GlcNAc(b1-4)[Fuc(a1-6)]GlcNAc
# Procedure, shortened: as §1
# [32] = target: Neu5Ac(a2-6)Gal(b1-4)GlcNAc(b1-2)Man(a1-6)Man(b1-4)GlcNAc(b1-4)GlcNAc
# Procedure, shortened: as §1
# [33] = target: Neu5Ac(a2-6)Gal(b1-4)GlcNAc(b1-2)Man(a1-6)[Gal(b1-4)GlcNAc(b1-2)Man(a1-3)]Man(b1-4)GlcNAc(b1-4)GlcNAc
# Procedure, shortened: as §1
# [34] = target: Neu5Ac(a2-6)Gal(b1-4)GlcNAc(b1-2)Man(a1-6)[GlcNAc(b1-2)Man(a1-3)]Man(b1-4)GlcNAc(b1-4)GlcNAc
# Procedure, shortened: as §1
# [35] = target: Neu5Ac(a2-6)Gal(b1-4)GlcNAc(b1-2)Man(a1-6)[Man(a1-3)]Man(b1-4)GlcNAc(b1-4)GlcNAc
# Procedure, shortened: as §1
# [36] = target: Neu5Ac(a2-6)Gal(b1-4)GlcNAc(b1-2)[Neu5Ac(a2-6)Gal(b1-4)GlcNAc(b1-4)]Man(a1-3)[GlcNAc(b1-4)][Neu5Ac(a2-6)Gal(b1-4)GlcNAc(b1-2)[Neu5Ac(a2-6)Gal(b1-4)GlcNAc(b1-6)]Man(a1-6)]Man(b1-4)GlcNAc(b1-4)GlcNAc
# Procedure, shortened: as §1
# [37] = target: Neu5Ac(a2-6)Gal(b1-4)GlcNAc(b1-2)[Neu5Ac(a2-6)Gal(b1-4)GlcNAc(b1-4)]Man(a1-3)[GlcNAc(b1-4)][Neu5Ac(a2-6)Gal(b1-4)GlcNAc(b1-4)Man(a1-6)]Man(b1-4)GlcNAc(b1-4)GlcNAc
# Procedure, shortened: as §1
# [38] = target: Neu5Ac(a2-6)Gal(b1-4)GlcNAc(b1-2)[Neu5Ac(a2-6)Gal(b1-4)GlcNAc(b1-6)]Man(a1-6)[Neu5Ac(a2-6)Gal(b1-4)GlcNAc(b1-2)Man(a1-3)][GlcNAc(b1-4)]Man(b1-4)GlcNAc(b1-4)GlcNAc
# Procedure, shortened: as §1
# [39] = target: Neu5Ac(a2-6)Gal(b1-4)GlcNAc(b1-3)Gal(b1-3)GlcNAc
# Procedure, shortened: as §1
# [40] = target: Neu5Ac(a2-6)Gal(b1-4)GlcNAc(b1-3)Gal(b1-4)GlcNAc
# Procedure, shortened: as §1
# [41] = target: Neu5Ac(a2-6)Gal(b1-4)GlcNAc(b1-3)Gal(b1-4)GlcNAc(b1-2)Man(a1-3)[Neu5Ac(a2-6)Gal(b1-4)GlcNAc(b1-3)Gal(b1-4)GlcNAc(b1-2)Man(a1-6)]GalNAc
# Procedure, shortened: as §1
# [42] = target: Neu5Ac(a2-6)Gal(b1-4)GlcNAc(b1-3)Gal(b1-4)GlcNAc(b1-3)Gal(b1-4)GlcNAc
# Procedure, shortened: as §1
# [43] = target: Neu5Ac(a2-6)Gal(b1-4)GlcNAc(b1-3)Gal(b1-4)GlcNAc(b1-3)Gal(b1-4)GlcNAc(b1-2)Man(a1-3)[Neu5Ac(a2-6)Gal(b1-4)GlcNAc(b1-3)Gal(b1-4)GlcNAc(b1-3)Gal(b1-4)GlcNAc(b1-2)Man(a1-6)]GalNAc
# Procedure, shortened: as §1
binder,measurement,setting,value
B1,glycan array binding signal (z-score),[1],-0.45
same,glycan array binding signal (z-score),[2],-0.1
same,glycan array binding signal (z-score),[3],-0.5
same,glycan array binding signal (z-score),[4],-0.432
same,glycan array binding signal (z-score),[5],-0.272
same,glycan array binding signal (z-score),[6],-0.094
same,glycan array binding signal (z-score),[7],-0.487
same,glycan array binding signal (z-score),[8],3.41
same,glycan array binding signal (z-score),[9],0.066
same,glycan array binding signal (z-score),[10],2.65
same,glycan array binding signal (z-score),[11],0.074
same,glycan array binding signal (z-score),[12],0.798
same,glycan array binding signal (z-score),[13],-0.224
same,glycan array binding signal (z-score),[14],-0.437
same,glycan array binding signal (z-score),[15],-0.812
same,glycan array binding signal (z-score),Neu5Ac(a2-3)GalNAc,0.204
same,glycan array binding signal (z-score),[16],-0.448
same,glycan array binding signal (z-score),[17],0.808
same,glycan array binding signal (z-score),[18],-0.335
same,glycan array binding signal (z-score),[19],0.768
same,glycan array binding signal (z-score),[20],-0.253
same,glycan array binding signal (z-score),Neu5Ac(a2-6)Gal,0.246
same,glycan array binding signal (z-score),[21],-0.581
same,glycan array binding signal (z-score),Neu5Ac(a2-6)Gal(b1-4)Glc,-0.235
same,glycan array binding signal (z-score),[22],-0.794
same,glycan array binding signal (z-score),[23],-0.089
same,glycan array binding signal (z-score),[24],-0.373
same,glycan array binding signal (z-score),[25],4.14
same,glycan array binding signal (z-score),[26],0.183
same,glycan array binding signal (z-score),[27],-0.344
same,glycan array binding signal (z-score),[28],0.135
same,glycan array binding signal (z-score),[29],-0.327
same,glycan array binding signal (z-score),[30],0.008
same,glycan array binding signal (z-score),[31],-0.395
same,glycan array binding signal (z-score),[32],-0.455
same,glycan array binding signal (z-score),[33],-0.668
same,glycan array binding signal (z-score),[34],-0.558
same,glycan array binding signal (z-score),[35],-0.363
same,glycan array binding signal (z-score),[36],-0.429
same,glycan array binding signal (z-score),[37],-0.426
same,glycan array binding signal (z-score),[38],0.316
same,glycan array binding signal (z-score),[39],-0.303
same,glycan array binding signal (z-score),[40],0.004
same,glycan array binding signal (z-score),[41],0.114
same,glycan array binding signal (z-score),[42],-0.361
same,glycan array binding signal (z-score),[43],1.07

# From the supplement of paper PMC8728848
